Data reported in PubChem BioAssay AID651687 (Broad Institute, 2012).
Several values for one entry are separate records, joined by “and”; a condition that tells them apart may be missing. Identical values can stand only once. The whole screen tested about 350,000 compounds, of which about 600 (0.17%) were called active. This list was built around the results that the source calls inconclusive (neither active nor inactive); the mix of calls is not that of the screen.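 The calls were made as follows: active = every replicate shows inhibition of at least 40%; inconclusive = mean inhibition at least 40% but some replicate below; inactive = the rest.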

Test: inhibitors of PGC1a acetylation signal, primary screen, cell-based, U2OS, AlphaScreen, inhibitor mode (AID 651687);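 also: 0% = neutral control wells and 100% = positive control wells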
Settings: AlphaScreen anti-acetyl-lysine, at 15.6 µM, hits give high values, with virally co-expressed GCN5 acetyltransferase

Row | Compound | inhibition
1 | CC(C)Oc1ccc2nnnn2n1 | inconclusive: 49%
2 | O=C1C(Cl)=C(N2CCOCC2)C(=O)N1CCc1ccccc1 | inconclusive: 42.4%
3 | O=c1[nH]c(/C=C/c2ccc([N+](=O)[O-])cc2)c([N+](=O)[O-])c(=O)[nH]1 | inconclusive: 42.8%
4 | Cc1nc([N+](=O)[O-])c(Br)n1CC(=O)c1ccc(Br)cc1 | active: 64.1%
5 | CC(C)CC(NC(=O)c1ccc(Cl)cc1)C(=O)OCC(=O)c1ccc2c(c1)NC(=O)CO2 (stereo not drawn) | inconclusive: 56.7%
6 | CS(=O)(=O)Nc1ccc2c(c1)[C@@H]1C[C@H](CC(=O)NCC3CC3)O[C@H](CO)[C@@H]1O2 | inactive: -0.0595%
7 | CCc1ccc(Nc2nnc(SCC(=O)Nc3ccc(C(=O)O)cc3)s2)cc1 | inconclusive: 46.1%
8 | Cc1cc(C)n(C(=O)c2ccc([N+](=O)[O-])cc2N)n1 | active: 43.9%
9 | CCn1cc(C(=O)Nc2ccccc2C(=O)OC)cn1 | inactive: 2.15%
10 | COc1ccc(-n2c(C)c([N+](=O)[O-])c3ccc(O)c(CN(C)C)c32)cc1 | inconclusive: 37.3%
11 | CN1CCN(C(=O)c2sc(=S)n(-c3ccccc3)c2N)CC1 | inconclusive: 63.2%
12 | C[C@@H]1CN([C@@H](C)CO)C(=O)c2cc(NC(=O)CCCCCC(=O)Nc3ccccc3N)ccc2O[C@@H]1CN(C)Cc1ccc2c(c1)OCO2 | inactive: 9.18%
13 | Cc1ccsc1C(=O)Nc1cc(Cl)ccc1-n1cncn1 | active: 61%
14 | Cc1ccc(SCCN2CCC(NC(=O)OCc3ccccc3)CCC2=O)cc1 (stereo not drawn) | inactive: -12.5%
15 | C[C@@](Cc1ccc(O)c(O)c1)(NN)C(=O)O | inconclusive: 62.3%
16 | CC(C)(C)c1ccc(O)c(O)c1 | inconclusive: 47.2%
17 | CC1CCCC(C)N1C(=S)NCc1ccco1 (stereo not drawn) | inconclusive: 47%
18 | C[C@@H](NC(=O)C[C@@H]1CC[C@H]2[C@@H](COC[C@@H](O)CN2C(=O)Nc2cccc(Cl)c2)O1)c1ccccc1 | inactive: 3.61%
19 | O=C(NCCCCc1ccccc1)c1cccc(NC(=O)C2CCCCC2)c1 | inactive: -14.1%
20 | Cc1ccc(CNC(=O)CCS(=O)(=O)c2cc3c(cc2Cl)NC(=O)CO3)cc1 | inconclusive: -15.4%
21 | O=C(Cc1ccccc1F)Nc1nc(-c2cccs2)cs1 | inactive: -30.9%

Row | Compound | inhibition
22 | CCCNC(=O)c1ccc(COc2ccc(Cl)cc2)o1 | inconclusive: 47.9%
23 | O=C1CC2CS(=O)(=O)CC2N1c1ccc(Cl)cc1Cl (stereo not drawn) | inconclusive: 56.4%
24 | COc1cc2nc(SCc3c(C)noc3C)n(CCC3=CCCCC3)c(=O)c2cc1OC | inconclusive: 48%
25 | CC(=O)c1sc(=S)n(Cc2ccccc2)c1C | inactive: -2.93%
26 | O=C(Cn1cnc2c(nnn2Cc2ccc(Cl)cc2)c1=O)c1ccccc1 | inconclusive: 50.4%
27 | O=C(Nc1ccc(F)cc1)Nc1ccc2c(c1)[C@H]1C[C@@H](CC(=O)N3CCCCC3)O[C@H](CO)[C@H]1O2 | inactive: -3.04%
28 | C/C=C/c1ccc2c(c1)O[C@@H](CN(C)C(=O)NC(C)C)[C@H](C)CN([C@H](C)CO)S2(=O)=O | inconclusive: 44.4%
29 | COC(=O)C1=C(C)OC(N)=C(C#N)C1c1ccccc1 (stereo not drawn) | inactive: -6.64%
30 | Cc1cc(C)c(C#N)c(N2CCN(c3ccccc3)CC2)n1 | active: 48.9%
31 | Cc1ccc(S(=O)(=O)N2CCN(C(=O)N3CCOCC3)CC2)cc1C | inconclusive: 42%
32 | Cc1cn(C2CCCCC2)c(=O)n(-c2ccccc2)c1=O | inactive: 3.69%
33 | O=C(Nc1ccccc1-c1ccccc1)NC1CC2CCCC(C1)N2Cc1ccc(F)cc1 (stereo not drawn) | inconclusive: 42.2%
34 | NCc1cccc(-n2cccn2)c1 | inconclusive: 54%
35 | CNC[C@H]1Oc2ncc(C#CC3CCCCC3)cc2C(=O)N([C@H](C)CO)C[C@H]1C | inconclusive: 41.2%
36 | CN1CCN(C(=O)C[C@@H]2CC[C@H](NC(=O)Cc3ccccn3)[C@H](CO)O2)CC1 | inactive: -1.2%
37 | N#Cc1c(C#N)c(O)c2ccccc2c1O | inconclusive: 46.1%
38 | C[C@H](NC(=O)C[C@H]1C[C@@H]2c3cc(NC(=O)Nc4ccc(C(F)(F)F)cc4)ccc3O[C@@H]2[C@@H](CO)O1)c1ccccc1 | inconclusive: 44.1%
39 | O=S(=O)(c1ccccc1)c1nc(-c2ccco2)oc1NCCN1CCOCC1 | inactive: 0.531%
40 | CCC(=O)N1CC2(CN(Cc3cccnc3)C2)c2c(n(C)c3cc(OC)ccc23)[C@H]1CO | inactive: 3.68%
41 | Cc1ccc(/C=N/N=C/c2ccc(C)cc2)cc1 | inactive: 0.652%
42 | O=C(CCl)N=c1sccn1Cc1ccc(Cl)cc1Cl | active: 65.8%

Row | Compound | inhibition
43 | CC(=O)Nc1ccc(S(=O)(=O)N2CCN(c3ccccn3)CC2)cc1 | inconclusive: 52.8%
44 | Cc1cc(C)n(-c2ccc(Cl)c(C(=O)OCC(N)=O)n2)n1 | inconclusive: 45.6%
45 | C[C@@H]1CN([C@@H](C)CO)C(=O)CCCn2nncc2CO[C@H]1CN(C)CC1CCCCC1 | inconclusive: 52.3%
46 | COC(=O)c1ccc(OC)c(OC2CCCC2)c1 | active: 89.1%
47 | Cc1ccccc1-n1nnnc1Sc1nnnn1-c1ccccc1 | inconclusive: 46.4%
48 | CCCNC(=O)N(C)C[C@H]1Oc2cc(C#CCC(C)C)ccc2S(=O)(=O)N([C@@H](C)CO)C[C@H]1C | inconclusive: 51%
49 | COc1ccc(NC(=O)N(C)C[C@@H]2Oc3ncc(C#CCN(C)C)cc3C(=O)N([C@@H](C)CO)C[C@H]2C)cc1 | inactive: -2.13%
50 | Cc1cc(C)c2nc(N3CCCC(C(=O)N4CCC(C(N)=O)CC4)C3)sc2c1 (stereo not drawn) | inconclusive: 40%
51 | Cc1cccc(S(=O)(=O)N(C)C[C@@H]2OCc3cn(nn3)CCCC(=O)N([C@H](C)CO)C[C@H]2C)c1 | inconclusive: 51.7%
52 | COC(=O)C[C@H]1CC[C@@H]2[C@@H](COc3ccc(NC(=O)c4cscn4)cc3C(=O)N2C)O1 | inactive: -16.4%
53 | Cc1ccc(S(=O)(=O)N2CCN(C(=O)CSc3nc4ccccc4c(=O)[nH]3)CC2)c(C)c1 | inconclusive: 44.2%
54 | CC(C)=CC(=O)OCc1cc([N+](=O)[O-])cc2c1OCOC2 | inactive: -6.76%
55 | Fc1ccc(CNC(=S)NCc2ccc(F)cc2)cc1 | active: 87.1%
56 | CC(C)NC(=O)NCC[C@H]1CC[C@H](NC(=O)c2ccc(F)cc2)[C@H](CO)O1 | inconclusive: 54.5%
57 | COc1ccc(Br)cc1CNc1ccccc1 | inconclusive: 40.4%
58 | COc1ccc(CNC(=O)C(c2ccco2)N(Cc2ccccc2)C(=O)Cc2cccs2)cc1 (stereo not drawn) | inactive: -3.16%
59 | O=C(c1cccc(F)c1)N1CCN(C(=O)c2cc(-c3ccc(Cl)cc3Cl)on2)CC1 | inconclusive: 42.6%
60 | C[C@H]1CN([C@@H](C)CO)C(=O)CCCn2nncc2CO[C@@H]1CN(C)C(=O)Nc1ccc2c(c1)OCO2 | inconclusive: 49%
61 | CN1CC=C2C(C#N)=C(N)C(C#N)(C#N)C(CCc3ccccc3)C2C1 (stereo not drawn) | inconclusive: 45.2%
62 | Cc1cc(NS(=O)(=O)c2ccc(NC(=O)COc3c(C)cc(Br)cc3C)cc2)no1 | active: 84.6%
63 | CCN1CCN(Cc2ccc(NC(=O)c3ccc(C)c(NC(=O)c4cncc(-c5cccs5)c4)c3)cc2C(F)(F)F)CC1 | active: 68.7%

Row | Compound | inhibition
64 | O=C(CSc1nnc(-c2ccncc2)o1)Nc1cc(F)ccc1F | inactive: -13.4%
65 | COc1ccc(N=C2SCC(c3ccc(C)cc3)=NN2CCO)cc1 | active: 78.3%
66 | C=CCNc1nc(Cl)nc(NCc2ccco2)n1 | inconclusive: 41.9%
67 | C[C@H](CO)N1C[C@H](C)[C@@H](CN(C)C(=O)c2ccc3c(c2)OCO3)Oc2cc(/C=C/c3ccccc3)ccc2S1(=O)=O | inactive: -15.2% and inactive: -8.97%
68 | COc1ccc(CCN2C(=O)CC(C(C)c3ccccc3)C2=O)cc1OC (stereo not drawn) | inconclusive: 45.4%
69 | Cc1ccc(S(=O)(=O)Nc2cccc3c2O[C@H](CN(C)C(=O)Nc2ccc(F)cc2)[C@@H](C)CN([C@H](C)CO)C3=O)cc1 | inactive: 0.017%
70 | O=C1C=CC2=C3c4cc(O)c(O)cc4CC3(O)COC2=C1O (stereo not drawn) | inactive: 2.97%
71 | COc1cc(/C=N/OCC(=O)NC2CCCCC2C)ccc1OCc1ccc(Cl)cc1 (stereo not drawn) | inactive: 0.013%
72 | COCCCNC(=O)c1ccc(CSCc2ccc(C)cc2)o1 | inconclusive: 46.1%
73 | CC1=CCC2C(=O)N(c3cccc(C(=O)NCc4ccccc4)c3)C(=O)C2C1 (stereo not drawn) | active: 63.2%
74 | Oc1c(Cl)cc(CN2CCOCC2)c2cccnc12 | inconclusive: 43.7%
75 | O=C(Nc1ccc(-c2cn3c(n2)SCC3)cc1)c1ccc2ccccc2n1 | inconclusive: 40.1%
76 | c1nc(NC2CCCCCC2)c2[nH]cnc2n1 | inconclusive: 40.9%
77 | CCc1ccc(C(=O)CN(C#N)c2nc(C)cc(C)n2)cc1 | active: 48.8%
78 | O=[N+]([O-])c1cc(F)c2cccnc2c1O | inconclusive: 42.5%
79 | O=C1C2C3C=CC(C4CC34)C2C(=O)N1/N=C/c1c[nH]c2ccccc12 (stereo not drawn) | active: 106%
80 | O=C(Nc1ccc(F)cc1)N1CC(=O)N2[C@@H](CO)[C@H](c3ccc(C#Cc4ccc(F)cc4)cc3)[C@@H]2C1 | inactive: 9.22%
81 | CN(Cc1ccccc1)C(=O)CN1C(=O)NC2(CCCC2)C1=O | inactive: 4.29%
82 | C[C@H]1CN([C@@H](C)CO)C(=O)CCCn2nncc2CO[C@@H]1CN(C)C(=O)c1ccc(N2CCN(C)CC2)cc1 | inconclusive: 55.6%
83 | COc1ccc(S(=O)(=O)Nc2ccc3c(c2)C(=O)N([C@@H](C)CO)C[C@H](C)[C@@H](CN(C)S(=O)(=O)c2ccc(F)cc2)OCCCC[C@@H](C)O3)cc1 | inactive: -4.53%
